Source: patent US9873709B2 (priority 2013, dated 2018)

Target: isolated recombinant JAK1 kinase domain (Homo sapiens (Human), UniProt P23458)
Settings: read-out: JAK1 Ki; isolated recombinant JAK1 kinase domain, 25 μM ATP

SMILES | Ki
CCOC(=O)N1CC=C(c2cccn3nc(Nc4ccc(C(=O)N5CC6CNCC6C5)cc4)nc23)CC1 (centres unmarked) [Example 2-126, ethyl 4-[2-[4-(2,3,3a,4,6,6a-hexahydro-1H-pyrrolo[3,4-c]pyrrole-5-carbonyl)anilino]-[1,2,4]triazolo[1,5-a]pyridin-8-yl]-3,6-dihydro-2H-pyridine-1-carboxylate] | 2.33 nM
CCOC(=O)N1CC=C(c2cccn3nc(Nc4ccc(C(=O)N5CCO[C@@H]6CNC[C@H]65)cc4)nc23)CC1 [Example 2-127] | 3.13 nM
CCOC(=O)N1CC=C(c2cccn3nc(Nc4ccc(C(=O)N5CCC6(CCN6)CC5)cc4)nc23)CC1 [Example 2-128, ethyl 4-[2-[4-(1,7-diazaspiro[3.5]nonane-7-carbonyl)anilino]-[1,2,4]triazolo[1,5-a]pyridin-8-yl]-3,6-dihydro-2H-pyridine-1-carboxylate] | 2.73 nM
CCOC(=O)N1CC=C(c2cccn3nc(Nc4ccc(C(=O)N5CCNCC5)cc4)nc23)CC1 [Example 2-129, ethyl 4-[2-[4-(piperazine-1-carbonyl)anilino]-[1,2,4]triazolo[1,5-a]pyridin-8-yl]-3,6-dihydro-2H-pyridine-1-carboxylate] | 4.02 nM
CCOC(=O)N1CC=C(c2cccn3nc(Nc4ccc(C(=O)N5CCC(CN)C5)cc4)nc23)CC1 (centres unmarked) [Example 2-130, ethyl 4-[2-[4-[3-(aminomethyl)pyrrolidine-1-carbonyl]anilino]-[1,2,4]triazolo[1,5-a]pyridin-8-yl]-3,6-dihydro-2H-pyridine-1-carboxylate] | 1.28 nM
CCOC(=O)N1CC=C(c2cccn3nc(Nc4ccc(C(=O)N5CCCC6(CCCCN6)C5)cc4)nc23)CC1 (centres unmarked) [Example 2-131, ethyl 4-[2-[4-(1,8-diazaspiro[5.5]undecane-8-carbonyl)anilino]-[1,2,4]triazolo[1,5-a]pyridin-8-yl]-3,6-dihydro-2H-pyridine-1-carboxylate] | 2.87 nM
CCOC(=O)N1CC=C(c2cccn3nc(Nc4ccc(C(=O)N5CCCC6(CCCNC6)C5)cc4)nc23)CC1 (centres unmarked) [Example 2-132, ethyl 4-[2-[4-(2,8-diazaspiro[5.5]undecane-2-carbonyl)anilino]-[1,2,4]triazolo[1,5-a]pyridin-8-yl]-3,6-dihydro-2H-pyridine-1-carboxylate] | 2.39 nM
CCOC(=O)N1CC=C(c2cccn3nc(Nc4ccc(C(=O)N5CCC6(CC5)CC(N)C6)cc4)nc23)CC1 [Example 2-133, ethyl 4-[2-[4-(2-amino-7-azaspiro[3.5]nonane-7-carbonyl)anilino]-[1,2,4]triazolo[1,5-a]pyridin-8-yl]-3,6-dihydro-2H-pyridine-1-carboxylate] | 2.65 nM
CCOC(=O)N1CC=C(c2cccn3nc(Nc4ccc(C(=O)N5CCOC6(CCCNC6)C5)cc4)nc23)CC1 (stereo not drawn) [Example 2-134, ethyl 4-[2-[4-(l-oxa-4,8-diazaspiro[5.5]undecane-4-carbonyl)anilino]-[1,2,4]triazolo[l,5-a]pyridin-8-yl]-3,6-dihydro-2H-pyridine-1-carboxylate] | 2.35 nM
CCOC(=O)N1CC=C(c2cccn3nc(Nc4ccc(C(=O)N5CCC6(CCNC6)CC5)cc4)nc23)CC1 [Example 2-135, ethyl 4-[2-[4-(2,8-diazaspiro[4.5]decane-8-carbonyl)anilino]-[1,2,4]triazolo[1,5-a]pyridin-8-yl]-3,6-dihydro-2H-pyridine-1-carboxylate] | 2.99 nM
O=C(CCC(F)(F)F)N1CC=C(c2cccn3nc(Nc4ccc(C(=O)N5CCC6(CCNC6)CC5)cc4)nc23)CC1 [Example 2-136, 1-[4-[2-[4-(2,8-diazaspiro[4.5]decane-8-carbonyl)anilino]-[1,2,4]triazolo[1,5-a]pyridin-8-yl]-3,6-dihydro-2H-pyridin-1-yl]-4,4,4-trifluoro-butan-1-one] | 1.7 nM
